From PubChem BioAssay AID1347073 (National Center for Advancing Translational Sciences (NCATS), 2019)
Among all 45,000 compounds or so, about 200 (0.44%) were called active. Inconclusive results (about 7%) are left out. Calls follow the shape of the dose curve; as a rule, active = well fitted activation curve with a large enough effect; inconclusive = small, poorly fitted or top-dose-only effect; inactive = no such curve, though single readings can be large or run the other way. The list shows a part of the results.

Experiment: qHTS of TDP-43 Inhibitors: NCGC Sytravon Library Screen; also: 0% is about no effect; nearly all actives have a fitted effect of over 55% in size
Conditions: yeast TDP-43 toxicity rescue, BacTiter-Glo growth, 24 h; series mostly up to 46.1 µM; growth rescue (activation): at the top concentration
How it was run: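 TDP-43-expressing yeast, pregrown in raffinose, seeded at OD600 0.02 in galactose medium with compound for 24 hr at 30 deg C. Growth read by BacTiter-Glo luminescence, so rescue of toxicity appears as activation.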

| Structure (SMILES) | growth rescue (activation) |
| --- | --- |
| CCCSc1ccc(C(=O)Nc2ccc(F)cc2F)cn1 | inactive: 24.1% |
| Cc1cc(C)n(C(=O)CNC(=O)c2cccc(Cl)c2)n1 | inactive: -16.8% |
| N/C(=N\NC(=O)c1sccc1OCc1ccc(Cl)cc1Cl)c1ccccn1 | inactive: 13.2% |
| CC(Oc1cccc(Cl)c1)C(=O)NCCCCc1ccccc1 (centres undefined) | inactive: 4.43% |
| C/C(=N/NC(=O)c1ccc2nc[nH]c2c1)c1cccs1 | inactive: 14.6% |
| COC(=O)c1c(NC(=O)C2CC2)sc(C(=O)Nc2ccccc2)c1C | inactive: 25.2% |
| COc1ccc(/C=N/n2cnc3scc(-c4cccs4)c3c2=O)cc1OC | inactive: 12% |
| Cc1ccc(-n2c3nc(=O)n(C)c(=O)c-3cc3ccccc32)cc1 | inactive: -1.04% |
| Cc1ccccc1N1CCN(C2CCCN(C(=O)c3cc(C(C)C)[nH]n3)C2)CC1 (centres undefined) | inactive: -7.1% |
| CCN(CC)CCn1c2ccccc2c2nc3ccc([N+](=O)[O-])cc3cc21 | inactive: -1.57% |
| O=C(c1ccco1)N1CCN(C(=O)C2CC(=O)N(c3ccc(Cl)cc3)C2)CC1 (centres undefined) | inactive: -18.2% |
| Cc1cc(NS(=O)(=O)c2ccc(NC(=O)CSc3nnc(-c4ccco4)n3C)cc2)nc(C)n1 | inactive: -2.6% |
| Cc1ccc(CSc2ncnc3c2cnn3-c2ccccc2)cc1 | inactive: 4.5% |
| O=C(NNC(=O)C1CCCN(S(=O)(=O)c2ccc3ccccc3c2)C1)C1CC1 (centres undefined) | inactive: -4.01% |
| COCc1cccc(-c2csc(C(C)(NC(C)=O)c3ccccc3)n2)c1 (centres undefined) | inactive: 3.93% |
| O=C(Nc1ccc2c(c1)OCO2)C1Cc2c(-c3ccncc3)ccnc2O1 (centres undefined) | inactive: 8.23% |
| CSCCC(NC(=O)c1cccc(C)c1)C(=O)Nc1sccc1C(N)=O (centres undefined) | inactive: 0.336% |
| COc1ccc(CCNC(=O)/C=C\c2ccccc2)cc1OC | inactive: -0.703% |
| CCSc1ncc(Cl)c(C(=O)Nc2c(C(=O)Nc3cccc(C)c3)oc3ccccc23)n1 | inactive: -10.2% |
| COCCn1cnnc1SCC(=O)Nc1cc(C)on1 | inactive: 5.65% |
| CCc1nc2ccccc2c(C(=O)OCc2nc3ccccc3c(=O)[nH]2)c1C | inactive: 14.7% |
| COc1ccc(N2CCN(c3nc4c(C)cccn4c(=O)c3C=C(C#N)C#N)CC2)cc1 | inactive: 12.2% |
| CCCc1nnc(SCC(=O)N(CC)CC)n1CC1CCCO1 (centres undefined) | inactive: 3.66% |
| CCNC(=O)C1(C)CCCN1C(=O)c1ccc(-c2ccccc2)cc1 (centres undefined) | inactive: 6.47% |
| CN1CCCN(C(=O)c2cc(-c3ccc(Cl)c(Cl)c3Cl)nc3ccccc23)CC1 | inactive: 6.46% |
| COc1ccc(S(=O)(=O)N2CCC(C(=O)N3CCC(C(N)=O)CC3)CC2)cc1Cl | inactive: 6.74% |
| Cc1cc(C)cc(NC(=S)N2CCC(NC(=O)C3CC3)CC2)c1 | inactive: -3.32% |

| Structure (SMILES) | growth rescue (activation) |
| --- | --- |
| CC(=O)c1ccc(OCc2nnn(CC(=O)O)c2-c2ccccc2)cc1 | inactive: 17.2% |
| COc1ccccc1NC(=O)C1CCN(C(=O)C2CC(=O)N(c3ccc(C)cc3)C2)CC1 (centres undefined) | inactive: -2.84% |
| O=C(CSc1nnnn1C1CCCC1)N1CCOCC1 | inactive: -9.11% |
| Cc1ccc(NC(=O)Cn2nc(C(=O)O)c3ccccc3c2=O)cc1S(=O)(=O)N1CCCCC1 | inactive: 8.73% |
| O=C(C1CCN(Cc2ccc(F)cc2)CC1)N(CCc1ccccc1)Cc1ccccc1 | inactive: -12.8% |
| Nc1ccc(N2CCCCC2)c(S(=O)(=O)Nc2ccccc2Cl)c1 | inactive: -11.5% |
| CCOC(=O)CN1C(=O)c2ccccc2Sc2ncccc21 | inactive: 11.9% |
| CC(C)(C)c1nnc(NC(=O)Cc2ccccc2[N+](=O)[O-])s1 | inactive: -15.4% |
| O=[N+]([O-])c1cc(/C=N/N2CCCCC2)ccc1Cl | inactive: 5.13% |
| Cc1ccccc1N(CC(=O)NC1CCCCC1)C(=O)c1csnn1 | inactive: 10.7% |
| CCOC(=O)c1sc(C)c2c(=O)n(CCCN3CCOCC3)cnc12 | inactive: 1.59% |
| CCOC(=O)c1c(C)[nH]c(C)c1C(=O)CSc1nc(N)cc(N)n1 | inactive: 9.5% |
| CCOc1ccccc1N(C(=O)Nc1ccc(Cl)cc1)C1=NCCS1 | inactive: -3.82% |
| COc1ccc(C(=O)N(CCc2ccccc2)Cc2cccs2)c(OC)c1 | inactive: 13% |
| O=C(NC1CCCCC1)C(c1ccccc1)N(C(=O)c1csnn1)C1CC1 (centres undefined) | inactive: 1.62% |
| CCNC(=S)Nc1cc(OCC)c(NC(=O)c2ccco2)cc1OCC | inactive: 21% |
| CS(=O)(=O)N(CC(=O)Nc1ccccc1)c1cccc(Cl)c1Cl | inactive: -2.46% |
| Cc1ccccc1-c1nnc(SCC(=O)N2CCCC2)o1 | inactive: 10.3% |
| COC(=O)CSCC(=O)Nc1cc2c(cc1C(C)=O)OCO2 | inactive: -3.69% |
| CCOC(=O)Cc1csc(NC(=O)Cn2c(=O)oc3ccccc32)n1 | inactive: -48.3% |
| Cc1cccc(OCC(=O)NC2CCCC2)c1 | inactive: -1.08% |
| N#Cc1ccccc1S(=O)(=O)N1CCN(c2cnccn2)CC1 | inactive: 0.84% |
| COc1cc(-c2noc(CCCC(=O)Nc3ccc(C(N)=O)cc3)n2)cc(OC)c1OC | inactive: 14.7% |
| COc1ccc(C(C(=O)NC2CCCCC2)N(C(=O)c2ccccn2)c2cccnc2)c(OC)c1 (centres undefined) | inactive: 8.48% |
| COc1ccc(CCNC(=O)c2coc3ccccc3c2=O)cc1OC | inactive: 10.7% |
| COc1ccc(C(=S)N2CCC(C(N)=O)CC2)cc1Br | inactive: -10% |
| CCN(Cc1ccccc1)C(=O)C1CCN(C/C(C)=C/c2ccccc2)CC1 | inactive: 7.19% |
